Source: a melting point compilation (Tetko et al.; mined from patent text by program, amines drawn as free bases though some values may be those of a salt)

melting point: 238 to 240 °C
SMILES: CC(C)C(=O)NC[C@H]1CN(c2ccc3c(c2)CCCc2cn[nH]c2-3)C(=O)O1
